Legend:
[1] = test system: complement C3 and anaphylatoxin C3a in CAF; assay: Complement C3 and anaphylatoxin C3a expression in CAF (western blot); assay type: cell-based
LNCaP cells = assay: mtDNA content of LNCaP media under dynamin inhibition; assay type: cell-based; settings: increasing doses of dynasore
CAF = assay: Reactive oxygen detection in CAF by DCFDA (FACS, fluorescence microscopy); assay type: cell-based; settings: CpG-ODN alone, N-acetylcysteine with LNCaP-CM
[2] = test system: circulating mtDNA in the PCa patients; assay: Plasma mtDNA in PCa patients before and during docetaxel treatment; assay type: in vivo, human; settings: pre-treatment versus undergoing docetaxel, paired, P = 0.006
plasma mtDNA content = assay: Plasma mtDNA in mice treated with docetaxel; assay type: in vivo, mouse; settings: 6 mg/kg/week for three weeks, P < 0.05
[3] = test system: LNCaP, PC3, and TRAMPC2 cells; assay: mtDNA secretion by PCa cell lines treated with docetaxel; assay type: cell-based
PC3 and CAF co-culture = assay: 3D organotypic co-culture of PC3 and CAF, EpCAM+/Ki67+ FACS; assay type: cell-based; settings: PC3 and CAF 3D co-culture, 48 hours
[4] = test system: xenografts of CAF and PC3 cells; assay: Subcutaneous xenograft of PC3 and CAF in male nude mice
LNCaP and PC3 = assay: Western blot of autophagy, mitophagy and ER-stress markers after docetaxel

Nc1nc[nH]n1 [3-Amino-1,2,4-triazole]
C3a generation ([1]; catalase inhibitor 10 mM combined with CpG-ODN): no effect

O=C(N/N=C/c1ccc(O)c(O)c1)c1cc2ccccc2cc1O [dynasore]
mtDNA content in the media (LNCaP cells): no appreciable changes

CC(=O)N[C@@H](CS)C(=O)O [N-acetylcysteine]
reactive oxygen signal (DCFDA) (CAF): suppressed LNCaP-induced reactive oxygen as well as C3a generation
conversion of C3 to C3a induced by LNCaP-CM ([1]; LNCaP-CM, N-acetylcysteine 10 mM): blocked the conversion of C3 to C3a

CC(=O)O[C@@]12CO[C@@H]1C[C@H](O)[C@@]1(C)C(=O)[C@H](O)C3=C(C)[C@@H](OC(=O)[C@H](O)[C@@H](NC(=O)OC(C)(C)C)c4ccccc4)C[C@@](O)([C@@H](OC(=O)c4ccccc4)[C@H]21)C3(C)C [docetaxel]
circulating (plasma) mtDNA [2]: dramatic increase
plasma mtDNA content (plasma mtDNA content): significant elevation
PCa release of mtDNA, potentiation [3]: over 5 fold
mtDNA secretion ([3]; dose dependent manner): profoundly elevate
EpCAM+/Ki67+ proliferative epithelial fraction (PC3 and CAF co-culture): did not appreciably reduce
tumor volume ([4]; docetaxel 6 mg/kg/week alone, compared to vehicle): not significantly reduced
activation of TAK1, AKT, and ERK1/2 in tumor tissues ([4]; western blot, docetaxel-treated mice compared to vehicle): activation of TAK1, AKT, and ERK1/2
ER-stress proteins p62 and CHOP (LNCaP and PC3; LNCaP and PC3): induction of endoplasmic reticulum (ER)-stress proteins, p62 and CHOP
LC3 activation, p62, and beclin expression (LNCaP and PC3; cytoplasmic and mitochondrial subcellular fractions): elevated LC3 activation, p62, and beclin expression
